Laboratory results: patent US20100003195A1 (published 2010)

Biological target: T1, KDR on KDR-transfected 293H cells (human, UniProt P35968)
T1 construct: whole, on cells; also called KDR-expressing cells; KDR-transfected cells
Test: neutravidin-coated fluorescent beads, KDR- vs mock-transfected 293H cells

T1 sequence (P35968 20-1356): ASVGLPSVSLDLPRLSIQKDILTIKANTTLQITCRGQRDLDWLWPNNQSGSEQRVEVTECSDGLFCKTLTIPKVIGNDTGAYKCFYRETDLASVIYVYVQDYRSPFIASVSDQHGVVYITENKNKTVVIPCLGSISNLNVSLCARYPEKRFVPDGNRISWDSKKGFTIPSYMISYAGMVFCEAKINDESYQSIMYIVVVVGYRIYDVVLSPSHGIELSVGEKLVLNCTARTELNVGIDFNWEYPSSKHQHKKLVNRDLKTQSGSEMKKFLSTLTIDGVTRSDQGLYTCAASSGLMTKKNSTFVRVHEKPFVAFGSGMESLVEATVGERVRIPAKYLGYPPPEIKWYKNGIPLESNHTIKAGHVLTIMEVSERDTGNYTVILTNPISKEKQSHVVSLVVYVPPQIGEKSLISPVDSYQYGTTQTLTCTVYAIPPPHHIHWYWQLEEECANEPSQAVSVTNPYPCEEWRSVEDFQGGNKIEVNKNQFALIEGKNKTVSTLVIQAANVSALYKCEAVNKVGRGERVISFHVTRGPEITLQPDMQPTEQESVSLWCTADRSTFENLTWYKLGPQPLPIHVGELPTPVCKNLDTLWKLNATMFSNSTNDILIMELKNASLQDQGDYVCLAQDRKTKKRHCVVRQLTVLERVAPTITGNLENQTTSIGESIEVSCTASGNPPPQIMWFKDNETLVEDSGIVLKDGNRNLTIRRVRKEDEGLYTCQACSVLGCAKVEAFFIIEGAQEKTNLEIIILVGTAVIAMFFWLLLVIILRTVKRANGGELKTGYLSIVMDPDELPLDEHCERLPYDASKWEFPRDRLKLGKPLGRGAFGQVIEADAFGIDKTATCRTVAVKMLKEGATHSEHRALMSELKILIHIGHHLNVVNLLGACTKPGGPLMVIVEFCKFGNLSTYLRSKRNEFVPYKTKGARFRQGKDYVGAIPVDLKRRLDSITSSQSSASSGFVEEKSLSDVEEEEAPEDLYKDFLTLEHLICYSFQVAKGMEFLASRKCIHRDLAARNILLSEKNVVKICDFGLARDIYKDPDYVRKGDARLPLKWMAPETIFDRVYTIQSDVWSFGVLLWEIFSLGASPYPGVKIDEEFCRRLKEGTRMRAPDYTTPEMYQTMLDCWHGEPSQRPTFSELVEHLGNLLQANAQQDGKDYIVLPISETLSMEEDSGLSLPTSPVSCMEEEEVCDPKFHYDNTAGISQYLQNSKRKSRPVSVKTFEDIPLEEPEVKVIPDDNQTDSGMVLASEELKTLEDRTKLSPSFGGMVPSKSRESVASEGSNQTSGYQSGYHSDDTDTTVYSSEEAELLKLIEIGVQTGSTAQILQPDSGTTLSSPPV

binding result: no binding
B1: unconjugated Neutravidin-coated red fluorescent microspheres (other, UniProt P02701 25-152, looked up)
chain: ARKCSLTGKWTNDLGSNMTIGAVNSRGEFTGTYITAVTATSNEIKESPLHGTQNTINKRTQPTFGFTVNWKFSESTTVFTGQCFIDRNGKEVLKTMWLLRSSVNDIGDDWKATRVGINIFTRLRTQKE
notes: negative control; also called avidin beads with nothing attached
